The test system of one assay is HSkMC. Description: cytotoxicity call (relative viability < 0.9). To be noted: 10 µM.
A further assay concerns HepG2. Description: cytotoxicity call (relative viability < 0.9). The following applies: 10 µM.
The next assay concerns S. aureus RN4220. Description: growth inhibition call (relative growth <= 0.2). The following applies: 50 µM.

Each structure is given as a SMILES string. The list shows a part of the results.

With `Cc1ccc(S(=O)(=O)Nc2ccc3c(c2)C(=O)N([C@@H](C)CO)C[C@H](C)[C@H](CN(C)Cc2ccncc2)OCCCC[C@@H](C)O3)cc1`, the cytotoxicity call in the assay on HSkMC and with HepG2 was “inactive” each time. For the same molecule, the growth inhibition call in the assay with S. aureus RN4220 was “inactive”.
Regarding `C[C@@H]1CN([C@@H](C)CO)C(=O)c2cccc(NC(=O)c3cnccn3)c2O[C@@H]1CN(C)Cc1ccccc1`, the cytotoxicity call in the assay on HSkMC and with HepG2 was “inactive” each time. Moreover, the growth inhibition call in the assay on S. aureus RN4220 is “inactive”.
Consider `C[C@@H]1CN([C@H](C)CO)C(=O)Cc2cc(NS(=O)(=O)c3cccs3)ccc2O[C@@H]1CN(C)Cc1ccc(Cl)c(Cl)c1`, for which the cytotoxicity call in the assay on HSkMC is “active”. For the same molecule, in the assay on HepG2, the cytotoxicity call was “inactive”. Further, the growth inhibition call with S. aureus RN4220 was “inactive”.
On to `C[C@H]1CN([C@@H](C)CO)C(=O)Cc2cc(NC(=O)C3CC3)ccc2O[C@H]1CN(C)S(=O)(=O)c1cn(C)cn1`, for which the cytotoxicity call with HSkMC and with HepG2 was “inactive” in each case. For the same molecule, the growth inhibition call in the assay with S. aureus RN4220 was “inactive”.
Regarding `C[C@H](CO)N1C[C@H](C)[C@H](CN(C)Cc2ccc3c(c2)OCO3)OCCCC[C@H](C)Oc2ccc(NS(=O)(=O)c3ccc(F)cc3)cc2C1=O`, the cytotoxicity call in the assay with HSkMC and in the assay with HepG2 was “inactive” in each case. In addition, in the assay on S. aureus RN4220, the growth inhibition call was “inactive”.
For the molecule `NC(=O)[C@H]1CCN(c2ncnc(N)c2F)C[C@@H]1N1CCC[C@@H](Nc2cc(Cl)cc(C(F)(F)F)c2)C1=O`, the cytotoxicity call in the assay with HSkMC and in the assay with HepG2 was “inactive” in each case. Also, in the assay with S. aureus RN4220, the growth inhibition call was “inactive”.
In the case of `CCc1nc2ccc(C(=O)Nc3cc(-c4ccccc4)ccc3OC)cn2c1N(C)C(=O)c1cccc(OC)c1`, the cytotoxicity call in the assay with HSkMC and in the assay on HepG2 was “inactive” each time. Moreover, the growth inhibition call with S. aureus RN4220 was “inactive”.
`Cc1ccc(S(=O)(=O)Nc2ccc3c(c2)C(=O)N([C@@H](C)CO)C[C@H](C)[C@H](CN(C)C(=O)Nc2ccc(C(F)(F)F)cc2)OCCCC[C@H](C)O3)cc1`: the cytotoxicity call with HSkMC and with HepG2 was “inactive” throughout. Further, in the assay with S. aureus RN4220, the growth inhibition call is “inactive”.
Turning to `Cc1ccc(S(=O)(=O)Nc2ccc3c(c2)C(=O)N([C@H](C)CO)C[C@@H](C)[C@@H](CN(C)S(=O)(=O)c2ccc(Cl)cc2)OCCCC[C@H](C)O3)cc1`, the cytotoxicity call in the assay with HSkMC and in the assay with HepG2 was “inactive” each time. Further, the growth inhibition call in the assay on S. aureus RN4220 was “inactive”.
With `COc1ccc(NC(=O)N(C)C[C@H]2Oc3ccc(NS(=O)(=O)c4cn(C)cn4)cc3C(=O)N([C@H](C)CO)C[C@@H]2C)cc1`, the cytotoxicity call in the assay on HSkMC and in the assay on HepG2 was “inactive” each time. In addition, the growth inhibition call in the assay with S. aureus RN4220 is “inactive”.
As for `CSc1ncc(F)c(N(CCO)CCO)n1`, the cytotoxicity call in the assay with HSkMC and with HepG2 was “inactive” throughout. The growth inhibition call with S. aureus RN4220 was “inactive”.
Consider `O=C(O)c1cc(=O)cc(C(=O)O)o1`, for which the cytotoxicity call in the assay with HSkMC and in the assay with HepG2 was “inactive” in each case. In addition, the growth inhibition call in the assay with S. aureus RN4220 is “inactive”.
As for `C[C@@H]1CN([C@@H](C)CO)C(=O)c2cc(NS(=O)(=O)c3ccc(Cl)cc3)ccc2O[C@@H](C)CCCCO[C@H]1CN(C)Cc1ccc2c(c1)OCO2`, in the assay on HSkMC, the cytotoxicity call is “inactive”. Further, in the assay with HepG2, the cytotoxicity call was “active”. For the same molecule, the growth inhibition call with S. aureus RN4220 is “inactive”.
Take `O=C(NO)c1cccc(C(=O)N/N=C/[C@@H](O)[C@H](O)[C@H](O)CO)c1`: the cytotoxicity call in the assay on HSkMC and in the assay with HepG2 was “inactive” in each case. Moreover, in the assay on S. aureus RN4220, the growth inhibition call was “inactive”.
On to `O=C(NCCN1CCN(c2ccccc2F)CC1)[C@H]1CCCN(S(=O)(=O)c2c[nH]cn2)C1`, for which the cytotoxicity call in the assay with HSkMC and with HepG2 was “inactive” throughout. Moreover, in the assay on S. aureus RN4220, the growth inhibition call was “inactive”.
Take `C[C@@H]1CN([C@@H](C)CO)C(=O)c2cc(C#Cc3cccc(F)c3)cnc2O[C@@H]1CN(C)CC1CCOCC1`: the cytotoxicity call with HSkMC and in the assay with HepG2 was “inactive” in each case. Besides, the growth inhibition call in the assay with S. aureus RN4220 was “inactive”.
Turning to `COc1ccc(S(=O)(=O)Nc2ccc3c(c2)C(=O)N([C@H](C)CO)C[C@@H](C)[C@@H](CN(C)C(=O)Nc2cccc4ccccc24)OCCCC[C@@H](C)O3)cc1`, the cytotoxicity call with HSkMC and with HepG2 was “inactive” throughout. The growth inhibition call in the assay on S. aureus RN4220 is “inactive”.
As for `Nc1ccc(C(=O)[O-])c(O)c1.[Na+]`, the cytotoxicity call in the assay with HSkMC and with HepG2 was “inactive” in each case. Moreover, the growth inhibition call in the assay on S. aureus RN4220 was “inactive”.
Turning to `COc1ccc(S(=O)(=O)Nc2cccc3c2O[C@H](CN(C)CC2CC2)[C@@H](C)CN([C@H](C)CO)C3=O)cc1`, the cytotoxicity call in the assay with HSkMC and with HepG2 was “inactive” in each case. Besides, the growth inhibition call with S. aureus RN4220 was “inactive”.
With `COc1ccccc1S(=O)(=O)N(C)C[C@H]1OCc2cn(nn2)CCCC(=O)N([C@H](C)CO)C[C@@H]1C`, the cytotoxicity call with HSkMC and with HepG2 was “inactive” each time. In addition, the growth inhibition call in the assay with S. aureus RN4220 was “inactive”.
As to `COCC(=O)Nc1ccc2c(c1)OC[C@@H](C)N(Cc1cccc(F)c1)C[C@H](C)[C@@H](OC)CN(C)C2=O`, the cytotoxicity call with HSkMC and in the assay with HepG2 was “inactive” each time. Besides, in the assay on S. aureus RN4220, the growth inhibition call was “inactive”.
For `C[C@@H]1CN([C@H](C)CO)S(=O)(=O)c2ccc(Br)cc2O[C@H]1CN(C)C(=O)c1ccc2c(c1)OCO2`, the cytotoxicity call with HSkMC and in the assay with HepG2 was “inactive” throughout. Further, in the assay with S. aureus RN4220, the growth inhibition call was “inactive”.
For `C[C@H](CO)N1C[C@H](C)[C@H](CN(C)C(=O)NC2CCCCC2)Oc2ccc(NS(=O)(=O)c3cn(C)cn3)cc2CC1=O`, the cytotoxicity call in the assay on HSkMC and in the assay on HepG2 was “inactive” each time. Moreover, the growth inhibition call with S. aureus RN4220 was “inactive”.
As to `C[C@@H]1CN([C@@H](C)CO)C(=O)c2cc(NS(=O)(=O)c3ccc(Cl)cc3)ccc2O[C@@H](C)CCCCO[C@H]1CN(C)S(=O)(=O)c1ccc(F)cc1`, the cytotoxicity call in the assay on HSkMC and with HepG2 was “inactive” throughout. In the assay with S. aureus RN4220, the growth inhibition call is “inactive”.
On to `C[C@@H]1CCCCO[C@H](CN(C)C(=O)Nc2ccc(C(F)(F)F)cc2)[C@@H](C)CN([C@H](C)CO)C(=O)c2cc(NC(=O)Nc3ccc4c(c3)OCO4)ccc2O1`, for which the cytotoxicity call with HSkMC and with HepG2 was “inactive” in each case. The growth inhibition call in the assay with S. aureus RN4220 is “inactive”.
Regarding `C[C@H](CO)N1C[C@H](C)[C@@H](CN(C)S(C)(=O)=O)Oc2ccc(NC(=O)NC3CCCCC3)cc2C1=O`, the cytotoxicity call in the assay on HSkMC (human skeletal muscle cells) and with HepG2 was “inactive” in each case. Further, in the assay on S. aureus RN4220, the growth inhibition call was “inactive”.

The record behind these values is the antibiotic and cytotoxicity screens of Wong et al. (2023).
